The full ranking holds about 13,000 compounds; the median of “IFI” is about 4, and the highest 2% start at about 17. This is one part of the list.

A short description of the assay: GSK_TCMDC: Inhibition Frequency Index (IFI). The number of non-kinase HTS assays where a compound showed > 50 % inhibition, expressed as a percentage of the number of such assays in which the compound was tested (-0 is zero). In kind it is functional.
Consider `CCCCNC(=O)[C@H](Cc1ccccc1)NC(=O)c1ccc(O)c(-c2ccc(Cl)c(Cl)c2)c1`, for which the IFI stood at 3.68%.
For the compound `Cc1cccc(-c2nc3cc(NC(=O)c4ccc([N+](=O)[O-])o4)ccc3o2)c1`, the IFI was 0.71%.
`Cc1cc(C(=O)Nc2ccc3c(c2)CCN3C2CCN(Cc3ccc(F)cc3Cl)C2)no1` (stereo not drawn) gave an IFI of 6.67%.
For `Cc1cc(=O)c(-c2ccc(Oc3ccc(OC(F)(F)F)cc3)cc2)c(C)[nH]1`, the IFI turned out to be 4.55%.
As for `COc1cc(-c2nc(-c3ccncc3)c(-c3ccc4c(c3)CCC4=NO)[nH]2)ccc1OCCN1CCN(C)CC1`, the IFI was 4.14%.
In turn, `COc1cc2nc(N3CCC(CNC(=O)c4cc5ccccc5s4)CC3)nc(N)c2cc1OC` displayed an IFI of 5.26%.
As for `O=C(Nc1cccc(CN2CCCN(Cc3ccc4c(c3)OCO4)CC2)c1)c1ccc(Cl)c(Cl)c1`, the IFI is 6.71%.
On to `O=C(Nc1ccc(-c2cncc(NCCCN3CCCC3)c2)cc1)c1ccccc1`, for which the IFI came out at 0%.
On to `O=C(Nc1ccccc1)N(Cc1ccccc1-c1cccc(CNCCc2ccccc2)c1)C1CCN(Cc2ccccc2)CC1`, for which the IFI was determined as 11.3%.
As to `O=C(/C=C/c1ccc([N+](=O)[O-])cc1)N1CCC(NS(=O)(=O)c2ccc(F)cc2)CC1`, the IFI is -0%.
`CC(=O)c1ccc(NC(=O)Nc2ccc3nccc(N4CCN(C)CC4)c3c2)cc1`: the IFI was -0%.
In the case of `Cc1ccccc1CNc1noc(-c2c(-c3ccccc3)noc2C)n1` it was 3.03%; in that of `N=C(N)NC(=O)Nc1ccc(Cl)c([N+](=O)[O-])c1`, 0.75%; in that of `CCN(CC)CCCC(C)Nc1cc(C)nc2cc(Cl)ccc12` (stereo not drawn), 0.8%.
On to `COc1ccc(NC(=O)/C=C/c2ccccc2Cl)cc1OCCN1CCN(c2ccncc2)CC1`, for which the IFI amounted to 2.1%.
As to `CC(=O)N(C)c1cccc(C(=O)Nc2cccc(-c3cccc(-c4nc5cc(C(F)(F)F)ccc5[nH]4)c3)c2)c1`, the IFI stood at 5.26%.
As to `OC(CNCc1ccccc1OCc1ccccc1)c1cccc(C(F)(F)F)c1` (stereo not drawn), the IFI is 7.69%.
`O=C(Nc1cccc(CN2CCN(C(=O)c3cccc(Cl)c3)CC2)c1)c1ccco1` showed an IFI of 1.5%.
In the case of `FC(F)(F)c1ccc2[nH]c(-c3ccc(-c4ccc(CN5CCN(c6cnccn6)CC5)cc4)cc3)nc2c1` it was 5.88%.
`COc1ccc(Cl)cc1N1CCN(CCCNC(=O)c2ccc(-c3nc4cc(Cl)c(F)cc4[nH]3)s2)CC1` returned an IFI of 2.13%.
Take `O=C(N[C@@H](Cc1ccccc1)C(=O)NCCN1CCCC1)c1ccc(O)c(-c2ccc(Cl)c(Cl)c2)c1`: the IFI was determined as 1.46%.
The compound `O=C(Nc1cccc(CN2CCCN(CC3CCCCC3)CC2)c1)c1ccc(Cl)c(Cl)c1` returned an IFI of 2.72%.
For `CCCc1cc(OC)c(CC2c3cc(O)c(Cl)cc3C(c3ccccc3)CN2C)cc1OC` (stereo not drawn) the value was 3.23%; for `CCn1ccc2c(N3CCCCS3(=O)=O)cc(C(=O)N[C@@H](Cc3ccccc3)[C@H](O)CNC(C)(C)c3cccc(C(F)(F)F)c3)cc21`, 5.84%; for `CCCCCN1CCCC(CNS(=O)(=O)c2cccc(C(=O)Nc3ccc(C(F)(F)F)cc3)c2)C1` (stereo not drawn), 7.23%.
`CCCc1cc(C)ccc1OCCCON1C(N)=NC(N)=NC1(C)C` came in with an IFI of 6.29%.
For `CC(CCc1ccccc1)NCC(O)c1ccc2c(c1)S(=O)(=O)c1ccccc1N2` (stereo not drawn), the IFI was found to be 2.13%.
Take `CC(C)Oc1ccc(N2CCN(CCCCNC(=O)c3ccc(NC(=O)c4ccc(Cl)cc4)cc3)CC2)c(OC(C)C)c1`: the IFI is 2.68%.
For `C=CCOC(=O)N1CCC(CNCc2cccc(-c3cccc(-c4nc5ccccc5[nH]4)c3)c2)C1` (stereo not drawn) the value was 7.77%; for `CCC(CN1C(=N)NC(c2ccccc2)(c2ccccc2)C1=O)c1ccccc1` (stereo not drawn), 9.62%.
For the compound `CCCCC(CC)NC(=O)[C@H]1CNCCN1C(=O)CCCc1ccccc1` (stereo partly drawn), the IFI worked out at 1.44%.
Regarding `CCC(C)Oc1ccc2nc(N)nc(N)c2c1Cl` (stereo not drawn), the IFI worked out at 2.13%.
`Cc1cc(O)c(-c2cccc(Oc3ccc(Cl)cc3)c2)c(C)n1` gave an IFI of 1.54%.
In turn, `CS(=O)(=O)Cc1cccc(Nc2ncc(Cl)c(Nc3cccnc3C(N)=O)n2)c1` gave an IFI of 4%.
Consider `Cc1[nH]c(C)c(-c2ccc(OCc3ccccc3C(F)(F)F)nc2)c(=O)c1Br`, for which the IFI was 3.64%.
In the case of `CC(Nc1ccnc2cc(Cl)ccc12)c1ccc(S(N)(=O)=O)cc1` (stereo not drawn), the IFI was found to be 1.47%.
`COc1cc2c(cc1S(=O)(=O)c1ccc(NC(=O)Nc3ccc(F)cc3)cc1)CCN(C)CC2` had an IFI of 1.59%.
Compound `Cc1noc(C)c1-c1ccc2c(Nc3ccc([N+](=O)[O-])cc3)c(C(N)=O)cnc2c1` yielded an IFI of 1.63%.
For `Oc1ccc(CCNc2nc(NCCCOc3ccccc3-c3cccnc3)nc(N3CCNCC3)n2)cc1` the value was 6.9%; for `C=CCc1cc(Br)ccc1OCCCOc1c(N)nc(N)nc1N`, 7.25%; for `NC(=O)COc1c(C2CCN(CCN3CCC(CNC(=O)c4ccc(-c5ccc(C(F)(F)F)cc5)cc4)CC3)CC2)ccc2c1CCCC2`, 5.43%.
`CN(C)c1cccc2c1nc(-c1ccco1)n2CCNCc1ccccc1` returned an IFI of 2.67%.
The compound `Cc1n[nH]c2cc(Nc3nccc(Nc4ccc(Oc5ccccc5)cc4)n3)ccc12` registered an IFI of 3.73%.
For `Cc1cccc2nc(-c3ccc(-c4ccc(CNCC5CCCO5)cc4)cc3)[nH]c12` (stereo not drawn), the IFI came out at 8.91%.
Regarding `CNC(=O)c1cc(NCCCNCc2ccc(Cl)c(C(F)(F)F)c2)nc2ccccc12`, the IFI was 5.19%.
`CCOc1ccc(-c2nc(NC(=O)CS(=O)(=O)c3ccccc3)sc2C)cc1` returned an IFI of 2.91%.
On to `CC(OC(=O)c1ccc(C(=O)NCC2CC2)cc1)C(C)(C)C` (stereo not drawn), for which the IFI is 0.76%.
In the case of `Cc1c(C(C)(C)C)ccc2nc(N)nc(N)c12` it was 2.34%; in that of `CCn1c(-c2ccccc2)cc2nnc3ccccc3c21`, 2.99%.
Turning to `O=C1OC(c2cc3ccccc3n2S(=O)(=O)c2ccccc2)(c2cc3ccccc3n2S(=O)(=O)c2ccccc2)c2ccccc21`, the IFI came to 0%.
In the case of `COc1cc2nc(NCCc3ccccc3)nc(NCCc3ccccc3)c2cc1OC` it was 9.77%.
With `COc1ccc2ccccc2c1CNCCCCCCNCc1c(OC)ccc2ccccc12`, the IFI stood at 9.93%.
For `COc1cccc(C(=O)OC2=C3CCC(=O)C3(C)CCC2=O)c1` (stereo not drawn) the value was 1.4%.
For the compound `N=C(N)NN=Cc1cc2ccccc2c2ccccc12`, the IFI is 4.29%.
As for `Cc1noc(C)c1-c1cccc(CNCc2ccc(-c3ccc(-c4nc5cc(C(F)(F)F)ccc5[nH]4)s3)cc2)c1`, the IFI amounted to 3.88%.
Take `CC(=O)Nc1cccc(Nc2nccc(-c3c(-c4cccc(NC(=O)c5c(F)cccc5F)c4)nn4ncccc34)n2)c1`: the IFI stood at 7.97%.
Regarding `COc1cc(Nc2ccnc3ccc(C(F)(F)F)cc23)cc(OC)c1OC`, the IFI is 2.92%.
For `Cc1ccc2[nH]c(/C=C/c3cccc4cc[nH]c34)nc2c1` the value was 2.78%.

These data come from ChEMBL document CHEMBL1157539, “Thousands of chemical starting points for antimalarial lead identification” (Nature, 2010).
